Measured values as given in PubChem BioAssay AID493208 (National Center for Advancing Translational Sciences (NCATS), 2011).
In all, about 44,000 compounds went through this assay and about 340 (0.77%) were called active. Not shown: some 5% with an inconclusive outcome. Calls follow the shape of the dose curve; as a rule, active = well fitted inhibition curve with a large enough effect; inconclusive = small, poorly fitted or top-dose-only effect; inactive = flat fitted curve, though single readings scatter. The list shows a part of the results.

Experiment: Acumen qHTS Assay for Inhibitors of the mTORC1 Signaling Pathway in MEF (Tsc2-/-, p53-/-) Cells: Sytravon;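 also: plate controls were DMSO for no effect and rapamycin for full effect; nearly all actives have a fitted effect of over 50% in size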
Conditions: phospho-rpS6 immunofluorescence/PI, 24 h; series mostly up to 38.3 µM; activity change, negative = inhibition: at the top concentration
How it was run: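 Readout is phospho-S6 Alexa 488 signal normalized to PI per well, reported as % active cells with thresholds set from rapamycin (7.5 nM) and DMSO controls. Cells: Tsc2-/-, p53-/- MEFs, 24 hrs compound at 37 C; PI cell number serves as viability.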

SMILES | activity change, negative = inhibition
CCN(Cc1ccccc1)C(=O)c1cn(-c2cccc(OC)c2)c(=O)c2ccccc12 | inactive: -23.5%
COc1ccc(CCN2C(=O)CN(C3CCCCCC3)C(=O)C2c2ccc(Cl)cc2)cc1OC (configuration not stated) | inactive: 3.44%
O=C(Cn1ncc2c3ccccc3n(Cc3ccccc3)c2c1=O)NCCCN1CCCCC1 | inactive: -0.0653%
COc1ccc(-c2cc(C(=O)Oc3ccc(C#N)cc3)no2)cc1 | inactive: -0.875%
COc1ccc(CNC(=O)C(CC(C)C)NS(=O)(=O)c2ccc3c(c2)CCN3C(C)=O)cc1 (configuration not stated) | inactive: 0.39%
O=S1(=O)c2ccccc2N(Cc2ccc(F)cc2)c2ccccc21 | inactive: -0.464%
O=C(NCCOCCn1c(=O)oc2ccccc21)Nc1ccc(F)cc1F | inactive: -13.3%
COc1ccc(Nc2nnc(-n3nc(C)cc3C)c3ccccc23)cc1 | inactive: -15.3%
COc1ccc(CNC(=O)c2cc3c(=O)n(Cc4ccc(OC)cc4)ccc3nc2C)cc1 | inactive: 0.0892%
COc1cc(Br)cc2cc(S(=O)(=O)c3ccccc3)c(=O)oc12 | inactive: -2.1%
Cc1cccc(NC(=O)CSc2nc3ccc(NC(=O)CCc4ccccc4)cc3s2)c1 | inactive: -6.74%
Cc1ccc(-c2nc(CS(=O)(=O)CC(=O)N3CCN(c4ccccc4)CC3)c(C)o2)cc1 | inactive: -0.809%
CCCSCCCNC(=O)c1sc2nc(C)cc(C)c2c1-n1cccc1 | inactive: -0.0028%
COc1cccc(NCc2nnc3n2CCCCC3)c1 | inactive: -11.7%
Cc1ccc(-c2noc(-c3cccnc3N(C)Cc3ccc(Cl)cc3)n2)cc1 | inactive: 4.67%
CCOc1ccc(NC(=O)CN(c2ccc(C)cc2)S(=O)(=O)c2cccs2)cc1 | inactive: -9.24%
CCc1cccc(C)c1Nc1c(-c2ccc(N(C)C)cc2)nc2cnccn12 | inactive: -20.7%
COc1cccc(CNC(=O)c2ccc3nc(CCc4ccccc4)oc3c2)c1OC | inactive: 1.33%
COc1ccc(-c2nc3ccccc3s2)cc1NC(=O)c1cccc(F)c1 | inactive: -9.74%
Cc1ccc(-n2nc(C)c3c(C)c(CCC(=O)NCc4ccc(Cl)cc4)c(C)nc32)cc1 | inactive: -1.29%
CCOc1ccc(CNCCSc2nnnn2C)cc1 | inactive: 5.4%
COC(=O)c1ccccc1NC(=O)Cn1c(=O)n(-c2ccc(C)cc2)c(=O)c2ccccc21 | inactive: -22.9%
COc1cc(Nc2nc3c(S(=O)(=O)c4cccc(Cl)c4)nnn3c3ccsc23)cc(OC)c1 | inactive: -10.1%
CCOc1ccc(NC(=O)Cn2nc(CC)n3c(cc4sccc43)c2=O)cc1 | inactive: 0.435%
Cc1ccc2c(c1)c1c(c(=O)n(-c3cccc(Cl)c3)c(=O)n1CC(N)=O)n2C | inactive: -1.96%

SMILES | activity change, negative = inhibition
COc1ccc(OCC(=O)Nc2cc(-c3nc4ccccc4o3)ccc2Cl)cc1 | inactive: 1.24%
O=C1Nc2ccccc2C1Cc1ccc(Br)cc1 (configuration not stated) | inactive: -0.701%
Cc1ccc(NC(=O)CN2C(=O)c3ccccc3Sc3ccc(C(=O)N4CCOCC4)cc32)cc1C | inactive: 0.57%
CCC(=O)N1CCc2cc(S(=O)(=O)NCCC(=O)Nc3ccc(C)cc3C)ccc21 | inactive: 0.679%
Cc1ccc(NC(=O)CSc2nc3nccnc3c(=O)n2CCc2c[nH]c3ccccc23)cc1C | inactive: -0.644%
Cc1ccccc1OCCSc1nc2ccc(NC(=O)c3ccco3)cc2s1 | inactive: -8.75%
Oc1c(C(c2ccc(Cl)cc2Cl)N2CCN(Cc3ccccc3)CC2)sc2nc(-c3ccco3)nn12 (configuration not stated) | inactive: -9.94%
CC(=O)c1cccc(NC(=O)c2cc3sc(Cl)cc3n2C)c1 | inactive: 2.26%
Cc1ccc(CNC(=O)Cn2ccn(-c3ccc(F)c(F)c3)c(=O)c2=O)cc1 | inactive: 3.67%
CCC(Sc1nc2ccncc2[nH]1)C(=O)Nc1cc(C)ccc1C (configuration not stated) | inactive: 1.22%
COCCNC(=O)CCCn1c(SCc2ccccc2C)nc2c(sc3ccccc32)c1=O | inactive: 0.727%
Cc1ccc(C2N3CC4(C)CN2CC(c2ccccc2)(C3)C4=O)cc1 (configuration not stated) | inactive: 2.1%
CCn1cc(/C=C(\NC(=O)c2ccccc2Cl)C(=O)NCCCn2ccnc2)c2ccccc21 | inactive: 0.527%
Cc1ccc(CNC(=O)c2ccc(N3Cc4ccccc4Oc4ncccc43)s2)cc1 | inactive: -1.87%
CCOc1ccc(C(=O)Nc2ccc(C(=O)OCc3cc(=O)n4c(C)csc4n3)cc2)cc1 | inactive: 3.82%
CCOCCCNC(=O)C(c1ccc(Cl)cc1)N(Cc1ccc2c(c1)OCO2)C(=O)c1ccc(NC(C)=O)cc1 (configuration not stated) | inactive: -11.2%
Cc1ccc(Cl)cc1NC(=O)c1cc(S(=O)(=O)N2CCOCC2)cn1C | inactive: -1.83%
COc1ccccc1CNc1ncnc2c1nc1n2CCCC1 | inactive: 1.22%
O=C(O)c1ccc2c(c1)N(Cc1ccc(F)cc1)C(=O)c1ccccc1S2=O (configuration not stated) | inactive: 0.687%
Cc1cc(NC(=O)c2cc(-c3ccc(F)cc3)on2)nn1Cc1ccc(Cl)cc1 | inactive: -3.41%
COc1ccccc1CNS(=O)(=O)c1c(C)nc2sc(C)cn2c1=O | inactive: -0.817%
CC1CCN(S(=O)(=O)c2ccc3c(c2)N(CC(=O)NCCN(C)C)C(=O)CS3)CC1 | inactive: -0.951%
O=C(NCCc1ccccc1)c1ccc2c(c1)CCN2S(=O)(=O)c1ccc(Cl)cc1 | inactive: -10.6%
Cc1ccc2c(CC(=O)Nc3ccc(S(=O)(=O)N4CCCC(C)C4)cc3)coc2c1 (configuration not stated) | inactive: 2.44%
O=C(Cn1c(=O)c2cccn2c2ccc(F)cc21)Nc1cccc(F)c1 | inactive: -1.79%

SMILES | activity change, negative = inhibition
CCCCN(C)C(=O)C1CCC(Cn2c(=O)[nH]c3ccsc3c2=O)CC1 (configuration not stated) | inactive: -2.51%
OC(c1ccccc1)c1nc2ccccc2n1Cc1c(F)cccc1Cl (configuration not stated) | inactive: -4.81%
Cc1oc2ncnc(N3CCOCC3)c2c1C(=O)Nc1ccc(Br)cc1F | inactive: 0%
CCOc1ccc(-c2cc3c(=O)n(CC(=O)NCc4ccccc4)ccn3n2)cc1 | inactive: 5.1%
Fc1ccc(-n2nc(-c3ccccc3)c3cnc4ccccc4c32)cc1Cl | inactive: 5.58%
O=C(CSc1nc(=O)n(Cc2ccccn2)c2c1CCC2)Nc1cccc(Cl)c1 | inactive: 6.37%
COCCNC(=O)CSc1nc(-c2ccc(C)cc2)[nH]c1-c1ccc(OC)cc1 | inactive: 0.531%
CC(C)CCNC(=O)C1CCC(CNS(=O)(=O)c2cccc3nsnc23)CC1 (configuration not stated) | inactive: 1.31%
CCc1ccc(NC(=O)CN2C(C(=O)OC)=C(c3ccccc3)c3ccccc3S2(=O)=O)cc1 | inactive: -13.7%
Cc1ccccc1OCC(=O)Nc1ccccc1C(=O)OCc1cc(=O)n2nc(C3CC3)sc2n1 | inactive: 4.26%
Cc1cccc(NC(=O)c2oc3ccccc3c2NC(=O)Cc2coc3cc(C)cc(C)c23)c1 | inactive: 0.524%
Cc1ccc(C(=O)c2cn(Cc3ccccc3)c3ccccc3c2=O)cc1 | inactive: -7.16%
Cc1cccc(-c2nc3cc(NC(=O)COc4ccccc4F)ccc3o2)c1 | inactive: 0%
COc1ccc(NC(=O)Cn2ccn(-c3ccc(C)c(C)c3)c(=O)c2=O)cc1Cl | inactive: 4.53%
Cc1cc(N2CCN(c3ccc(F)cc3)CC2)n2cnnc2n1 | inactive: -2.01%
Cc1ccc(-c2c3c(=O)n(C)c(=O)n(C)c3c3c(C)nc4ccccc4n23)cc1 | inactive: 7.72%
COc1ccc(Cl)cc1NC(=O)CSc1nc(=O)[nH]c2c1CCC2 | inactive: -4.92%
O=C(Cc1cccs1)NC1CC(=O)N(c2ccc(Cl)cc2)C1 (configuration not stated) | inactive: 2.95%
Cc1ccc(-c2nn3c(-c4ccccc4)nnc3c3ccccc23)cc1 | inactive: 0.79%
CC(C)Sc1ncc(Cl)c(C(=O)N(Cc2ccc(F)cc2)C2CCS(=O)(=O)C2)n1 (configuration not stated) | inactive: -6.93%
Cc1cccc(C(=O)OCc2cc(=O)n3nc(C4CCCCC4)sc3n2)c1 | inactive: -16.6%
COc1ccc(N2Cc3cccc(C(=O)Nc4ccc(C)c(C)c4)c3C2=O)cc1 | inactive: -5.41%
CCc1cccc(N2C(=O)CS(=O)(=O)C23C(=O)N(Cc2ccc(F)cc2)c2ccc(C)cc23)c1 (configuration not stated) | inactive: -1.8%
O=C(NCCC1=CCCCC1)c1ccc2c(c1)N(Cc1ccccc1F)C(=O)c1ccccc1S2(=O)=O | inactive: -10.2%
Cc1ccc(NC(=O)CN2C(=O)C(C)(C)c3ccccc32)cc1 | inactive: 0.363%

SMILES | activity change, negative = inhibition
CC1=C(C(=O)Nc2ccc(C)cc2)C(c2ccc(Cl)cc2)n2nnnc2N1 (configuration not stated) | inactive: -19.9%
CCOc1ccc(N2CC(NC(=O)Cc3ccccc3)CC2=O)cc1 (configuration not stated) | inactive: -7.51%
CCN1c2cc(C)ccc2-n2cccc2C12CCN(C(=O)Nc1cc(OC)c(OC)c(OC)c1)CC2 | inactive: 0.179%
COc1ccc(N2CC(NC(=O)COc3ccccc3C)CC2=O)cc1OC (configuration not stated) | inactive: -0.184%
Cc1ccc(S(=O)(=O)c2nc(-c3ccco3)oc2SCc2ccccc2Cl)cc1 | inactive: -0.371%
CCOC(=O)c1cc(-c2ccccc2)n(-c2cccc(C(=O)N(CC)c3ccccc3)c2)c1C | inactive: 1.27%
Cc1cc(C)cc(NC(=O)C(=O)NC(C)c2ccccc2)c1 (configuration not stated) | inactive: -29.1%
Cc1c2cnn(-c3ccccc3)c(=O)c2c(C)n1C(C)C(=O)Nc1ccc(Br)cc1F (configuration not stated) | inactive: -5.73%
CC(C)c1ccc2oc(-c3cccc(NC(=O)c4ccc5c(c4)OCCO5)c3)nc2c1 | inactive: -18.3%
Cc1ccc(-n2c(SCC(=O)Nc3cccc(F)c3)nc3c(oc4ccccc43)c2=O)cc1C | inactive: 1.38%
COc1ccc(N2CCN(C(=O)NCc3noc4ccccc34)CC2)cc1 | inactive: -7.6%
Cc1ccc2oc3c(c(=O)c2c1)C(c1cccc(O)c1)N(Cc1ccccc1Cl)C3=O (configuration not stated) | inactive: -0.852%
COc1cccc(NC(=O)C2CCCN2S(=O)(=O)c2ccc3c(c2)C(C)(C)C(=O)N3C)c1 (configuration not stated) | inactive: 2.31%
Cc1cc(C)cc(-n2ccn3c(CC(C)(C)CC(=O)O)nnc3c2=O)c1 | inactive: 8.39%
CCOc1ccc(/C=C/c2nc(C#N)c(Nc3ccc(OC)cc3)o2)cc1 | inactive: -10.6%
CCCOc1ccc(CN(C(=O)c2nc(SC(C)C)ncc2Cl)C2CCS(=O)(=O)C2)cc1 (configuration not stated) | inactive: -5.25%
CSc1ccc(CCNC(=O)CCc2c(C)nc3cc(-c4ccccc4)nn3c2C)cc1 | inactive: -3.2%
N#Cc1ccccc1Cn1c(=O)n(Cc2ccc(C(=O)NC3CCN(Cc4ccccc4)CC3)cc2)c(=O)c2ccccc21 | inactive: -2.81%
Fc1ccc(-c2ccc(CNCCSc3nnnn3-c3ccccc3)o2)cc1Cl | inactive: -6.53%
O=C(Nc1c(C(=O)Nc2cccc(F)c2)oc2ccccc12)c1cc2ccccc2o1 | inactive: 0.584%
COc1cc2[nH]c(=O)n(CCCCCC(=O)NCCc3ccccc3)c(=O)c2cc1OC | inactive: 1.9%
CCOC(=O)c1c(NC(=O)COc2cccc(C(F)(F)F)c2)sc2c1CCCCC2 | inactive: 5.78%
